# Experimental data: the supplement of paper PMC3334620
# Over roughly 33,000 sequences, “E-score (-0.5 to 0.5)” has its median near -0.053; the highest 2% begin near 0.37. The list shows a part of the results.
# Target: Hap1 (UniProt P0CE41)
# Test: PBM E-score (8-mer binding enrichment) (E-score (-0.5 to 0.5)); higher = stronger / more preferred TF binding; most listed sequences are background and not binding sites
# Settings: protein concentration: 200 nM; construct: GST-DNA-binding domain
# Procedure, shortened: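 PURExpress in vitro transcription/translation supplied GST-tagged yeast transcription factors, either full-length or DNA-binding domain. Applied at about 100-200 nM to universal all-10-mer Agilent arrays double-stranded by primer extension, the bound protein was detected with fluorescent anti-GST. E-scores, modified Wilcoxon-Mann-Whitney statistics, were given by the Universal PBM Analysis Suite to ungapped eight-base words pooled with their reverse complements after masliner normalisation.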
# UniProt P0CE41, sequence (P0CE41 whole entry): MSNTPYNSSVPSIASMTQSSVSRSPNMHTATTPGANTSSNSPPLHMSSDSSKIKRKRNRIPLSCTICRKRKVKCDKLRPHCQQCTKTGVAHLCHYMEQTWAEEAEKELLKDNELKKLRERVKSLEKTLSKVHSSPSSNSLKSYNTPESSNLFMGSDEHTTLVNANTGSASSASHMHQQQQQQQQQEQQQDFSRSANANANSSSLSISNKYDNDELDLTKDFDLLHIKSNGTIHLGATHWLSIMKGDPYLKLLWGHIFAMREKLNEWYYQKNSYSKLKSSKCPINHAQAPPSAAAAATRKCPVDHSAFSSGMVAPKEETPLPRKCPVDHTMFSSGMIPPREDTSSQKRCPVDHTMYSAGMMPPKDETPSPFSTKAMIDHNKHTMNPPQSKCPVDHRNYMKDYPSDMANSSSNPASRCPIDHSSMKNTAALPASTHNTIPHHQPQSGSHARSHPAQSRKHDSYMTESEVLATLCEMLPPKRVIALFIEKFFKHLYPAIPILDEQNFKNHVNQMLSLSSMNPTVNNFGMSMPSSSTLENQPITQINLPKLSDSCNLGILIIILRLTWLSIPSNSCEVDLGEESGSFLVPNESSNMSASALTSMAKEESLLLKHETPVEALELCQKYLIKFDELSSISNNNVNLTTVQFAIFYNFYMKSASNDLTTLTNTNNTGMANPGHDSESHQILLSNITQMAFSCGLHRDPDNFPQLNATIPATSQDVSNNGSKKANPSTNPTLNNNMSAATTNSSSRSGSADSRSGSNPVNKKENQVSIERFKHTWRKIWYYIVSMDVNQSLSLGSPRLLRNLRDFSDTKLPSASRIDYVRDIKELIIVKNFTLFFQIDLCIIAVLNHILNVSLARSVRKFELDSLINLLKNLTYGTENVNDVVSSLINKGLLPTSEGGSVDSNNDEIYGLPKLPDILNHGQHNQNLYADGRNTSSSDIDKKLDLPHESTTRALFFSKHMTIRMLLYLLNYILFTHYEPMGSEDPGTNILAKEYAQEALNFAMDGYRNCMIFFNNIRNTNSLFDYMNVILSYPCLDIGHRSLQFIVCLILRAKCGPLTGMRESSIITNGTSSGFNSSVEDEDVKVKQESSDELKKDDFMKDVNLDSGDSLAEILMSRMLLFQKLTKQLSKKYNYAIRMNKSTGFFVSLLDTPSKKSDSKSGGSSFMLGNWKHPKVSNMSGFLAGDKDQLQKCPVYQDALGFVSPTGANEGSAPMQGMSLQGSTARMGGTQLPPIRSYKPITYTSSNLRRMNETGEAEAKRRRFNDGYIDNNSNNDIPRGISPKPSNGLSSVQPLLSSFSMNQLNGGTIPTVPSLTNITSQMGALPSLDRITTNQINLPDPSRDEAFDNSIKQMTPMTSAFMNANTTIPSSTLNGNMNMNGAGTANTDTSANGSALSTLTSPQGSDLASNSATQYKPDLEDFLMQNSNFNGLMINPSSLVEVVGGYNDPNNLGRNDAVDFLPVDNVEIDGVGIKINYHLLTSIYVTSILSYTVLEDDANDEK
row,Sequence,PBM E-score
1,ACTGTTAA,-0.0464
2,CTCTAGAG,-0.237
3,CATTAGGA,-0.265
4,GGGTGGAA,0.0892
5,GGTCGTAC,0.145
6,TATTAAAA,0.0552
7,GAAGACTC,-0.18
8,ACCGCGGT,0.277
9,CCCTTCCG,0.209
10,ATATATCC,0.399
11,AGGTAGAT,-0.132
12,CTATCCTC,-0.0805
13,ATATCGGC,0.455
14,TACCAGTA,-0.0535
15,GGAAGTAC,0.295
16,GTGCTGAA,-0.125
17,GTCCCGAC,0.243
18,ACCGACGA,0.295
19,CCCAACTC,0.149
20,CAAGGTTC,-0.0642
21,AAAACCTT,0.0357
22,GACAAGAA,0.0641
23,GACGTCGC,-0.208
24,CATGGGCC,0.0341
25,AACGCGAT,0.187

row,Sequence,PBM E-score
1,ATTAGAAT,-0.0438
2,CGCCAGAG,-0.0599
3,CTGCAAAA,-0.215
4,ACGCATTG,-0.134
5,ATTACAGC,-0.119
6,AAAAGATG,-0.198
7,CAGAACCA,-0.328
8,CCGAGATC,0.36
9,GATCGTAA,-0.154
10,ACATATTA,-0.0822
11,CTGGTAAG,-0.216
12,AGGTTTGA,-0.0406
13,AAGAGGAA,-0.224
14,GATGCGCA,-0.0228
15,GGCGGTAC,0.0136
16,ATGTGTGG,-0.0579
17,TCAGCGCA,-0.0852
18,AGACAACA,-0.0316
19,TCTCTCAA,-0.0191
20,GGAGCGTA,0.0997
21,ACAAATAT,0.0379
22,AAACTAAC,-0.087
23,ATTAGTCC,0.255
24,AAGACACC,0.126
25,ACTCGTTA,-0.161

row,Sequence,PBM E-score
1,GGTGTAGA,0.044
2,AGCACCGG,0.292
3,AATAAAAT,-0.2
4,ATCTCCAC,0.168
5,GCCTGGCA,-0.263
6,GATTCCCA,-0.0361
7,AAGCGTTC,-0.297
8,AGCATCCT,-0.0258
9,AGACATCT,-0.0923
10,AAAGCTTA,-0.199
11,GAGCATAC,-0.048
12,ACAACCAA,-0.225
13,CGAATTCC,0.168
14,AGTCCCAC,-0.263
15,ATGCAATA,-0.249
16,CGAAATAA,0.182
17,GCAACAAC,-0.117
18,TCACTTCA,-0.115
19,GGGAGGAC,-0.0255
20,CGGACACA,0.346
21,ACCGAAGT,0.17
22,CCCTCAGA,-0.334
23,ATGCCTCC,-0.0554
24,AATAGTCC,0.18
25,GAACCCCC,-0.0311

row,Sequence,PBM E-score
1,AATTTCCT,0.0207
2,AGACTATA,-0.0611
3,CAGGATCC,-0.0214
4,CACGGACG,0.331
5,CGCTTGCC,0.0248
6,TTAGAGAA,-0.312
7,AGTAAACC,0.0884
8,CGACGTCA,-0.018
9,CAATTAAA,-0.0462
10,ACACGAAC,-0.0394
11,CGTTTCAC,-0.0243
12,CACTAACA,-0.0964
13,ATCGTCAT,-0.154
14,CCCGTACG,0.111
15,CCTGCCTC,-0.223
16,ACGACTGG,-0.019
17,CCTTCAAC,-0.282
18,CGGGGCAA,0.198
19,GCTTGGCC,0.00907
20,CTAGAATC,-0.144
21,CTGTCACC,-0.112
22,CATGTCAG,-0.282
23,CTTTAAAG,-0.156
24,GATCAAAC,-0.0316
25,AGTGAGCC,-0.0809

row,Sequence,PBM E-score
1,AGTTGACG,-0.118
2,GAAGCCTA,-0.0624
3,TCAGCCCA,-0.077
4,CATCACTC,-0.0906
5,ACGTCTTA,-0.324
6,GCTAAAAA,-0.191
7,AGAATCTG,0.0171
8,CACGCATA,-0.245
9,CAGAGTAC,-0.2
10,CGCTGCCG,0.00047
11,GACGGGCC,0.142
12,TAACTAAA,-0.0154
13,CCGCGGCC,0.3
14,CAACGCTG,-0.075
15,TGCCTAAA,-0.195
16,AGCGTTTA,0.0549
17,ACTAGGTG,-0.179
18,GAAGTGAA,-0.0198
19,GTCCGCTA,0.37
20,AGCGCCCA,-0.297
21,ATTAGGTA,-0.235
22,GCGCCGCA,0.214
23,GCGCATAA,-0.0289
24,ATCTTACC,0.0746
25,GCATAGGA,-0.136

row,Sequence,PBM E-score
1,ATCTCCCA,0.0357
2,AATATCCT,-0.0321
3,CCGGTCAG,0.315
4,GTCCATAA,-0.17
5,ATCCGGTC,0.329
6,GGGGCAAA,0.144
7,GCCGAAGA,0.244
8,ACTGCAAC,-0.233
9,GCCTAGCA,-0.266
10,CATCTAAA,0.0278
11,AAATGCCT,-0.13
12,GACATGTA,0.0382
13,CTGGGCTC,-0.134
14,ACTTAACT,-0.00446
15,CTCGGGCC,0.329
16,CAATGGAC,-0.0716
17,CCCAGACC,0.0135
18,CGAGTCCA,-0.0732
19,GAGCGAAA,0.126
20,ATTTAGCG,0.146
21,ACCACAAC,-0.039
22,ACTGCATA,-0.112
23,CCGCCCAG,0.166
24,GACTGCTA,-0.119
25,CACACTAA,-0.141

row,Sequence,PBM E-score
1,GACCGTGC,-0.00251
2,AGGCTGAA,-0.0986
3,GTGAGCGA,-0.052
4,CAGGAGCG,-0.0395
5,CCGTCTCC,0.126
6,AAGGGTGA,-0.088
7,ACTCGTAT,-0.199
8,AGAGACCC,-0.165
9,GATAGCAC,-0.0698
10,CAGGCATA,-0.143
11,CGGAACAG,0.257
12,GAAGCCGC,0.167
13,TCCCACCA,-0.121
14,GACTGCTC,-0.065
15,AAGTACGA,0.0847
16,GGGACGGA,0.227
17,AGTGCTCC,0.0294
18,AACCGATT,0.263
19,CGAACCAC,0.184
20,ATGTATCA,0.0121
21,GAGTAATC,0.0296
22,GCTGGACC,0.0549
23,GTAAATCA,0.132
24,AAAATGTT,-0.235
25,AGAATCAG,0.0289

row,Sequence,PBM E-score
1,AAGGGCAG,-0.138
2,ACAGTAAA,-0.0787
3,GGATTGGA,-0.0689
4,CGACTTAC,0.071
5,GAGTGACC,-0.064
6,GGCAATTA,0.202
7,ATCGGCTA,0.32
8,TATAACGA,-0.134
9,CCCACCTA,-0.216
10,ACTAAACC,0.212
11,ACGAGTGC,-0.0497
12,CCGTTGAA,0.0341
13,CAGAATCC,0.0558
14,GCGTAACC,0.011
15,CGCCACCA,-0.08
16,ATGGTTAC,-0.199
17,CATATAGC,-0.049
18,AAGTAAAC,0.0347
19,GTCGCCAC,-0.198
20,AAACAAAG,0.0658
21,ATGGATAC,-0.0824
22,TCTGGTAA,-0.0353
23,CGATAGTC,0.0708
24,TCATTTAA,-0.167
25,CGTGGCAA,-0.182

row,Sequence,PBM E-score
1,GTACCGAC,0.191
2,AGAACTCT,-0.226
3,AGGCACCG,0.00238
4,GAGAGGCA,0.00691
5,CCACACCA,-0.263
6,ATACCGGC,0.398
7,CTGTTTAA,-0.136
8,AATCGCAA,0.0133
9,CCTTCGTA,-0.123
10,CTTTCGGC,0.348
11,CACATCTG,-0.23
12,AGTACGGG,-0.028
13,TAAGCTAA,-0.0186
14,GCTAATAC,0.155
15,ACATTATA,-0.0878
16,CTCTTCCA,0.0944
17,ATTACAAG,-0.0768
18,CACGGGGA,0.189
19,TTGATAAA,-0.0645
